For 9 molecules, growth inhibition call results are on record in the antibiotic and cytotoxicity screens of Wong et al. (2023).

The structures appear in SMILES notation. Some of the results follow.

This assay concerns S. aureus RN4220. The assay can be described thus: growth inhibition call (relative growth <= 0.2). To be noted: 50 µM.
For the molecule `C[C@H](CO)N1C[C@H](C)[C@H](CN(C)S(=O)(=O)c2cn(C)cn2)Oc2ccc(NS(C)(=O)=O)cc2C1=O`, the growth inhibition call is “inactive”. On to `C[C@@H]1CN([C@H](C)CO)C(=O)c2cc(NC(=O)C3CCCCC3)ccc2O[C@@H](C)CCCCO[C@@H]1CN(C)Cc1ccccc1`, for which the growth inhibition call is “inactive”. With `Cc1ccc(S(=O)(=O)N(C)C[C@H]2Oc3c(NS(=O)(=O)c4cn(C)cn4)cccc3C(=O)N([C@@H](C)CO)C[C@@H]2C)cc1` the entry was “inactive”; with `C[C@@H]1CN([C@H](C)CO)C(=O)c2cc(NS(=O)(=O)c3ccc(F)cc3)ccc2O[C@H]1CN(C)S(=O)(=O)c1cn(C)cn1`, “inactive”; with `COc1ccc(S(=O)(=O)N(C)C[C@H]2Oc3c(NC(=O)Nc4c(C)noc4C)cccc3C(=O)N([C@H](C)CO)C[C@H]2C)cc1`, “inactive”. Regarding `N#Cc1cccnc1Oc1ccccc1`, the growth inhibition call is “inactive”.

`O=C(C[C@@H]1C=C[C@H](NC(=O)c2cccnc2)[C@H](CO)O1)NCCN1CCCCC1`: the growth inhibition call was “inactive”. Regarding `COc1ccc2c3c(n(c2c1)C)[C@@H](CO)N(Cc1ccccc1)C[C@]13CCN(CC1)C(=O)Nc1cccc(c1)F`, the growth inhibition call was “inactive”.

As to `C[C@@H]1CN([C@H](C)CO)C(=O)c2cc(NS(=O)(=O)c3cn(C)cn3)ccc2O[C@H]1CN(C)C(=O)Nc1ccc2c(c1)OCO2`, the growth inhibition call was “inactive”.
